{"source": "the supplement of paper PMC3334620", "note": "In all, about 33,000 sequences were measured (“E-score (-0.5 to 0.5)”: median about -0.032, highest 2% from about 0.36 on). The list shows a part of the results.", "data": [{"target": "T1, Sko1 (UniProt Q02100)", "T1 sequence": "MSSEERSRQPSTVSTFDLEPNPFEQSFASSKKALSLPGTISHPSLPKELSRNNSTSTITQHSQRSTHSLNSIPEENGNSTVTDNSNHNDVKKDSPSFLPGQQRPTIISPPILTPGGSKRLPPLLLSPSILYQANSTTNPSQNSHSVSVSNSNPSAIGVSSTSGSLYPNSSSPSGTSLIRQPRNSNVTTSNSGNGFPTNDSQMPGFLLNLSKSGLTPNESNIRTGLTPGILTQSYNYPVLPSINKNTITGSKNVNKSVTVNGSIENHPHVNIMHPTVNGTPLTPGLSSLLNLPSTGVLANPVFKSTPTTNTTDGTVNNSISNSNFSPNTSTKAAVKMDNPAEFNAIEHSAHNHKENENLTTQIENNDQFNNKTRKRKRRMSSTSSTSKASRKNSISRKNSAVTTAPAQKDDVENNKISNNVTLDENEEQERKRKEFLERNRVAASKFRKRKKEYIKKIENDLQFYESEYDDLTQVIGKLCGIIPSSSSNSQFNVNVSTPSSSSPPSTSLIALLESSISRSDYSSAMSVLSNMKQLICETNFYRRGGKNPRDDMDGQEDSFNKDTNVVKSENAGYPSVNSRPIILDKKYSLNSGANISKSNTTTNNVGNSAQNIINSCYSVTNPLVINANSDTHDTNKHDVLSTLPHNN", "experiment": "PBM E-score (8-mer binding enrichment) (E-score (-0.5 to 0.5)); higher = stronger / more preferred TF binding; most listed sequences are background and not binding sites", "settings": "protein concentration: 200 nM; construct: GST-full length", "experimental": "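Universal 'all 10-mer' protein binding microarrays (Agilent AMADID 015681) probed with GST-tagged S. cerevisiae TFs (full-length or DBD) made by in vitro transcription/translation (PURExpress), about 100-200 nM. Bound TF was detected with fluorescent anti-GST. Each ungapped 8-mer (which stands for itself and its reverse complement) is scored by the PBM enrichment score (E-score), a modified Wilcoxon-Mann-Whitney statistic from -0.5 to +0.5, computed with the Universal PBM Analysis Suite. Scale: above 0.35 generally sequence-specific binding.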", "values": [{"sequence": "GCGATGCC", "PBM E-score": -0.215}, {"sequence": "GTGAGCAA", "PBM E-score": 0.0421}, {"sequence": "CCCCTCAC", "PBM E-score": -0.132}, {"sequence": "CCTAGGAC", "PBM E-score": -0.29}, {"sequence": "GAGTCAGC", "PBM E-score": 0.0517}, {"sequence": "AGACATGA", "PBM E-score": 0.0292}, {"sequence": "GGAACTTA", "PBM E-score": 0.0286}, {"sequence": "GCTTCTGA", "PBM E-score": -0.0487}, {"sequence": "ATTCACAC", "PBM E-score": 0.105}, {"sequence": "GCTACGCA", "PBM E-score": 0.294}, {"sequence": "AAGAGCGT", "PBM E-score": 0.0353}, {"sequence": "ACCAGGAC", "PBM E-score": -0.205}, {"sequence": "ACAAGAAA", "PBM E-score": 0.113}, {"sequence": "AGAATGAG", "PBM E-score": 0.0649}, {"sequence": "AGGCGAGA", "PBM E-score": -0.208}, {"sequence": "CGTAGGAC", "PBM E-score": 0.0514}, {"sequence": "CCTTTCTA", "PBM E-score": 0.0431}, {"sequence": "GACACAAA", "PBM E-score": 0.141}, {"sequence": "CTCGTGCA", "PBM E-score": -0.0967}, {"sequence": "CGGAATCC", "PBM E-score": -0.2}, {"sequence": "AATCCATA", "PBM E-score": 0.0971}, {"sequence": "CGCGATAC", "PBM E-score": 0.194}, {"sequence": "GCTTACTA", "PBM E-score": 0.00391}, {"sequence": "ACAACGGG", "PBM E-score": -0.0547}, {"sequence": "AGAATCAC", "PBM E-score": 0.108}, {"sequence": "CCACGTCG", "PBM E-score": 0.168}, {"sequence": "CGACTAGA", "PBM E-score": -0.0947}, {"sequence": "CCAGGCTA", "PBM E-score": -0.405}, {"sequence": "ACTCACCG", "PBM E-score": -0.128}, {"sequence": "CATTTGAC", "PBM E-score": 0.19}, {"sequence": "CCGACGGA", "PBM E-score": -0.237}, {"sequence": "GTAGGACA", "PBM E-score": 0.0127}, {"sequence": "CTTGAGCA", "PBM E-score": -0.161}, {"sequence": "ACGGCAAT", "PBM E-score": 0.174}, {"sequence": "CAGGCTCG", "PBM E-score": -0.106}, {"sequence": "TCACGTGA", "PBM E-score": 0.336}, {"sequence": "GTCCCAAA", "PBM E-score": -0.0266}, {"sequence": "CTAACTAC", "PBM E-score": 0.107}, {"sequence": "GCGACTCA", "PBM E-score": -0.134}, {"sequence": "GGAACAAA", "PBM E-score": 0.101}, {"sequence": "GAAAATTA", "PBM E-score": 0.135}, {"sequence": "CTAGGACC", "PBM E-score": -0.305}, {"sequence": "AGTAGAGA", "PBM E-score": -0.0942}, {"sequence": "TACCGGAA", "PBM E-score": 0.0144}, {"sequence": "CTCGGTAC", "PBM E-score": -0.0539}, {"sequence": "CCCGACAA", "PBM E-score": -0.0755}, {"sequence": "CCCGCGTA", "PBM E-score": 0.0208}, {"sequence": "ACAATGGG", "PBM E-score": -0.0973}, {"sequence": "GCGCTCAC", "PBM E-score": -0.126}, {"sequence": "CGTCTGTA", "PBM E-score": 0.0784}, {"sequence": "AGTATAAA", "PBM E-score": 0.141}, {"sequence": "AGGATGAA", "PBM E-score": -0.0733}, {"sequence": "ATGGGCAC", "PBM E-score": -0.0936}, {"sequence": "GAGCGGGC", "PBM E-score": -0.221}, {"sequence": "AGACAATC", "PBM E-score": 0.0537}, {"sequence": "AAAGCTCA", "PBM E-score": 0.0637}, {"sequence": "GAAACCCA", "PBM E-score": -0.107}, {"sequence": "CTTAACAA", "PBM E-score": 0.0987}, {"sequence": "AGTCCCGG", "PBM E-score": -0.356}, {"sequence": "ATCTGTTG", "PBM E-score": -0.116}, {"sequence": "TGAGACCA", "PBM E-score": 0.0502}, {"sequence": "CACGTTAA", "PBM E-score": 0.244}, {"sequence": "AGCTGCGG", "PBM E-score": -0.224}, {"sequence": "GCGCTATA", "PBM E-score": 0.0962}, {"sequence": "ACAGATCG", "PBM E-score": -0.0395}, {"sequence": "CTGCACGC", "PBM E-score": -0.147}, {"sequence": "AAGCCTAG", "PBM E-score": -0.0672}, {"sequence": "GCTTATAA", "PBM E-score": 0.11}, {"sequence": "ACCGCAGA", "PBM E-score": -0.179}, {"sequence": "TCTCGAGA", "PBM E-score": 0.0362}, {"sequence": "AGATCAAT", "PBM E-score": -0.103}, {"sequence": "AGGTCTAT", "PBM E-score": -0.101}, {"sequence": "CTATATGC", "PBM E-score": 0.0474}, {"sequence": "CGACGCTA", "PBM E-score": -0.00059}, {"sequence": "GATCTAGC", "PBM E-score": -0.135}, {"sequence": "CCGATAAG", "PBM E-score": -0.199}, {"sequence": "AATTTGAA", "PBM E-score": 0.096}, {"sequence": "AGCCGAGG", "PBM E-score": -0.0722}, {"sequence": "ACATGTTA", "PBM E-score": 0.242}, {"sequence": "CTAGTATC", "PBM E-score": -0.069}, {"sequence": "AACATACT", "PBM E-score": 0.0365}, {"sequence": "CATAAGCA", "PBM E-score": -0.085}, {"sequence": "TAACACCA", "PBM E-score": 0.143}, {"sequence": "ACATTATG", "PBM E-score": 0.175}, {"sequence": "AGGTGTGC", "PBM E-score": -0.152}, {"sequence": "AGCCTTAG", "PBM E-score": -0.157}]}]}
